Reference: paper PMC4599859
Numbering of substitutions follows the chain as printed. No constants are given. Whether binding was seen depends on the method and setting. For some of these results: In cells and extracts the contact can be indirect. Some results given as binding are weak or reduced against the parent protein; the word gives no strength. Sequences can lack the tags named with a protein.

Experiments:
[1] = molecular target: T1, IBR5 (Indole-3-Butyric Acid Response 5) fused with the pGBKT7 vector (Arabidopsis thaliana) (UniProt Q84JU4); test: two-hybrid; IBR5 or IBR5^C129S in pGBKT7 (bait), R protein domains in pGADT7 (prey); yeast AH109; interaction tested on SD-Trp-Leu-His-Ade medium
T1 sequence: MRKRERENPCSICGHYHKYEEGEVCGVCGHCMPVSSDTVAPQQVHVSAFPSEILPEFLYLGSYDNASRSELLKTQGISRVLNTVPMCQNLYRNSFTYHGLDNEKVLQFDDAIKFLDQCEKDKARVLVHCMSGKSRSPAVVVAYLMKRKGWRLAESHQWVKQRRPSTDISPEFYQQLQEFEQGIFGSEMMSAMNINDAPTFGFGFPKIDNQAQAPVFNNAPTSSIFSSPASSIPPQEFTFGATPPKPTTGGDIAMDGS

[2] = molecular target: T2, IBR5^C129S fused with the pGBKT7 vector (Arabidopsis thaliana) (UniProt Q84JU4); test: as above
T2 sequence: T1 sequence with C129S

[3] = molecular target: T3, full-length RPM1-Myc (Super:RPM1-Myc) (Arabidopsis thaliana) (UniProt Q39214); test: co-IP; two constructs co-expressed in N. benthamiana leaves; extract in 150 mM NaCl, 10 mM Tris-HCl pH 7.6, 2 mM EDTA, 0.5% NP-40; anti-Myc beads, 4°C, 2 h; blot with anti-HA or anti-Flag
T3 sequence: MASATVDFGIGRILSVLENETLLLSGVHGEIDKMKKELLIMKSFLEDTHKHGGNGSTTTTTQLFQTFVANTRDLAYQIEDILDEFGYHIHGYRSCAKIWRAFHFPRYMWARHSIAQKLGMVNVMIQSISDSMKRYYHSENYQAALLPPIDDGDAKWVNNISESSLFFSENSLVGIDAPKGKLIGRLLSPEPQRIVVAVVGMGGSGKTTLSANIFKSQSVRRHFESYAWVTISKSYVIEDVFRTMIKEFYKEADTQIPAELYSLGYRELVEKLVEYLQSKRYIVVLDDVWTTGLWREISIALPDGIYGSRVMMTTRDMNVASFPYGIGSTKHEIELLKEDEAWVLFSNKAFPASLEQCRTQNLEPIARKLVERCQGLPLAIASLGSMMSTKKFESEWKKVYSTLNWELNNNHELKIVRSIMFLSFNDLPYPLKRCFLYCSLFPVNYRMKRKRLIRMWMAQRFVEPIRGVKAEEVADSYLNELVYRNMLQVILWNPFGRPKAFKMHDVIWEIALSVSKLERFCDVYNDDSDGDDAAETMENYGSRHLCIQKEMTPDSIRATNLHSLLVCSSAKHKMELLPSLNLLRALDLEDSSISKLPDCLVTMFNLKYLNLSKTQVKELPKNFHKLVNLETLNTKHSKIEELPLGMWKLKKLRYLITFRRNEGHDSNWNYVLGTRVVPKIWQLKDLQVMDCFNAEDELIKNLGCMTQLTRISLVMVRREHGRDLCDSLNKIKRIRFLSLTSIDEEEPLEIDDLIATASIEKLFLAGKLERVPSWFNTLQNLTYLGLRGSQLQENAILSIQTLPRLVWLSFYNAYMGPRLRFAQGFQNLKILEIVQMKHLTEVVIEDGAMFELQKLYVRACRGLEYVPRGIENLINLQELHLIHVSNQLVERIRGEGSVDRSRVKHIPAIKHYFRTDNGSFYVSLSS

[4] = molecular target: T4, full-length RPS4-Myc (Super:RPS4-Myc) (Arabidopsis thaliana) (UniProt Q9XGM3); test: as above
T4 sequence: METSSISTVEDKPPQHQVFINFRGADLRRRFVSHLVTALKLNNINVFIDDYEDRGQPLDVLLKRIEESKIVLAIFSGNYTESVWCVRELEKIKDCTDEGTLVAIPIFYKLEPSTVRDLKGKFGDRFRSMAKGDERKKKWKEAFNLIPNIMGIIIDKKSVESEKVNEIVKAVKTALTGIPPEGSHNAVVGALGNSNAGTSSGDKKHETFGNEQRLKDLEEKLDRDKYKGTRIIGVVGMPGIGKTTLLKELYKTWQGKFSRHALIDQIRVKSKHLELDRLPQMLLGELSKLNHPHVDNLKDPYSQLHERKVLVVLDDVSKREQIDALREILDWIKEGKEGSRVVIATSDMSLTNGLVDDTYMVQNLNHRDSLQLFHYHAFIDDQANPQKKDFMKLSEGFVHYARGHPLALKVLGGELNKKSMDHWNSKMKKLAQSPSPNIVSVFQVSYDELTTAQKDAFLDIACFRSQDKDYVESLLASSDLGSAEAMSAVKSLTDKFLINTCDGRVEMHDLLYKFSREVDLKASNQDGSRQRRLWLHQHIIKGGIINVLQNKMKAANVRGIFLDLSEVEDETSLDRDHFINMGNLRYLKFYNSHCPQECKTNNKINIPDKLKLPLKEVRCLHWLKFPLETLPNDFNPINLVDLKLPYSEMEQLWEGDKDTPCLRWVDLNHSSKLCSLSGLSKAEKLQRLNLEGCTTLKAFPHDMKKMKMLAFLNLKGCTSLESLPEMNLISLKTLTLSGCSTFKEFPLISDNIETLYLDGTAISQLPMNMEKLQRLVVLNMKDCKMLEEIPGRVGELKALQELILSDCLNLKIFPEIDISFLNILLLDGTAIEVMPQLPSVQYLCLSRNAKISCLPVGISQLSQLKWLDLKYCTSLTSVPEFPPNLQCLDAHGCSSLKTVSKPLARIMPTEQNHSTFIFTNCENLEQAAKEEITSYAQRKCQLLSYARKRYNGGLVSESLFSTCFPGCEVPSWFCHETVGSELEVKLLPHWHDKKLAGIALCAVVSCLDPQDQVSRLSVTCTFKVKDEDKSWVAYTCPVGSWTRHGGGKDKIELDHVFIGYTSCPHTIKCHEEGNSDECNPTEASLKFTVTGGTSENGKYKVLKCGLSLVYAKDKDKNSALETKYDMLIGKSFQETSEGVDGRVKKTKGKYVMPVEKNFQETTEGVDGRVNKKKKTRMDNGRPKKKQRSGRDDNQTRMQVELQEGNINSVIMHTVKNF

[5] = molecular target: T5, cLuc-IBR5 (Arabidopsis thaliana) (UniProt Q84JU4); test: split reporter; firefly luciferase complementation imaging (LCI) in N. benthamiana leaves; HSP90 or SGT1b on nLuc, IBR5 on cLuc
T5 sequence: T1 sequence

[6] = molecular target: T6, IBR5-Myc (Super:IBR5-Myc) in transgenic Arabidopsis plants (Arabidopsis thaliana) (UniProt Q84JU4); test: co-IP; total protein of transgenic Arabidopsis plants expressing Super:IBR5-Myc (with or without Super:SGT1b-Flag); anti-Myc immunoprecipitation; blot with anti-HSP90 or anti-Flag
T6 sequence: T1 sequence

B1: TIR domain of CHS3 (aa 1-138) fused with the pGADT7 vector (domain or fragment, UniProt Q9FKN7 1-138)
chain: MEPPAARVTPSIKADCSHSVNIICEETVLHSLVSHLSAALRREGISVFVDACGLQETKFFSIKQNQPLTDGARVLVVVISDEVEFYDPWFPKFLKVIQGWQNNGHVVVPVFYGVDSLTRVYGWANSWLEAEKLTSHQS
With B1 the binding [1] was “binds” and the binding [2] was “binds”.

B2: TIR domain of SNC1 (yeast two-hybrid prey) (domain or fragment, UniProt O23530 19-182)
chain: RRYDVFPSFRGEDVRDSFLSHLLKELRGKAITFIDDEIERSRSIGPELLSAIKESRIAIVIFSKNYASSTWCLNELVEIHKCYTNLNQMVIPIFFHVDASEVKKQTGEFGKVFEETCKAKSEDEKQSWKQALAAVAVMAGYDLRKWPSEAAMIEELAEDVLRKT
For B2, the binding [1] was “binds”.

B3: HA-Flag-IBR5 (35S:HF-IBR5) in N. benthamiana leaves (protein, UniProt Q84JU4 1-257)
chain: T1 sequence
For B3, the binding [3] was “no binding” and the binding [4] was “binds”.

B4: SGT1b-nLuc (protein, UniProt Q9SUT5 1-358)
chain: MAKELAEKAKEAFLDDDFDVAVDLYSKAIDLDPNCAAFFADRAQANIKIDNFTEAVVDANKAIELEPTLAKAYLRKGTACMKLEEYSTAKAALEKGASVAPNEPKFKKMIDECDLRIAEEEKDLVQPMPPSLPSSSTTPLATEADAPPVPIPAAPAKPMFRHEFYQKPEEAVVTIFAKKVPKENVTVEFGEQILSVVIDVAGEEAYHLQPRLFGKIIPEKCRFEVLSTKVEIRLAKAEIITWASLEYGKGQSVLPKPNVSSALSQRPVYPSSKPAKDWDKLEAEVKKQEKDEKLDGDAAMNKFFSDIYSSADEDMRRAMNKSFAESNGTVLSTNWKEVGTKKVESTPPDGMELKKWEY
In the case of B4, the binding [5] is reported as “binds”.

B5: SGT1b-Flag (Super:SGT1b-Flag) in Arabidopsis (protein, UniProt Q9SUT5 1-358)
chain: B4 chain
With B5 the binding [6] was “binds”.

B6: TIR domain of RPP4 (yeast two-hybrid prey) (domain or fragment, UniProt F4JNA9 11-175)
chain: RRYDVFPSFSGVDVRKTFLSHLIEALDRRSINTFMDHGIVRSCIIADALITAIREARISIVIFSENYASSTWCLNELVEIHKCYKKGEQMVIPVFYGVDPSHVRKQIGGFGDVFKKTCEDKPEDQKQRWVKALTDISNLAGEDLRNGPTEAFMVKKIANDVSNKL
With B6 the binding [1] was “no binding”.

B7: TIR domain of RPS4 fused with the pGADT7 vector (domain or fragment, UniProt Q9XGM3 14-175)
chain: PQHQVFINFRGADLRRRFVSHLVTALKLNNINVFIDDYEDRGQPLDVLLKRIEESKIVLAIFSGNYTESVWCVRELEKIKDCTDEGTLVAIPIFYKLEPSTVRDLKGKFGDRFRSMAKGDERKKKWKEAFNLIPNIMGIIIDKKSVESEKVNEIVKAVKTAL
For B7, the binding [1] was “no binding” and the binding [2] was “no binding”.
